“And” between values parts separate entries of the source, which are not always exact repeats. Equal entries are not always repeated.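 Where inhibition never reached the appropriate level, the endpoint shown equals the highest concentration tested. Otherwise, values were interpolated linearly from a five-concentration, 48-hour dose response in 96-well plates. GI50 marks 50% less growth. TGI denotes the concentration required for complete inhibition of growth.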 Square brackets hold non-standard residues; d marks the D form. Peptide text beside a SMILES is read from it. * marks the point of attachment. NMeF = CN[CH](Cc1ccccc1)C(=O)O; NMeV = CN[CH](C(=O)O)C(C)C; Boc = CC(C)(C)OC(=O)*
The compounds below were run on NCI-H322M lung (assay: NCI anticancer screen, dose series, 48 h).

Q: With COC1=C(OC)C(=O)C(Cc2c(C)nc3sc(C)cn23)=C(C)C1=O as the compound, how does the TGI read?
A: Its TGI is over 100 µM.

Q: Which TGI does the source give for O=C1C2C3C=C4c5ccccc5N(c5ccccc5)C4(C2C(=O)N1Cc1ccccc1)C1C(=O)N(Cc2ccccc2)C(=O)C31 (stereo unspecified) here?
A: The TGI was over 100 µM.

Q: For CCOC(=O)/C=C(/C(=O)OCC)n1ccc(=O)n(Cc2cn(COCCOC(C)=O)nn2)c1=O, which TGI is on record?
A: The TGI was over 100 µM.

Q: CSc1ccc2c(cc1=O)[C@@H](NC(=O)c1ccc(N)cc1)CCc1cc(O)c(O)c(O)c1-2 was tested. Which GI50 did it give?
A: The GI50 was 73 µM and 16.5 µM.

Q: And the TGI?
A: Its TGI is over 100 µM.

Q: How did the TGI turn out when Cc1cccc(NC(=O)/C(=N\NC(C)(C)C)C2NC(=S)NC2=O)c1C (stereo unspecified) was run?
A: The TGI was over 100 µM.

Q: How did the TGI turn out when Cc1cc(Cl)ccc1N=C1NC(=O)C(CC(=O)Nc2ccc([N+](=O)[O-])cc2[N+](=O)[O-])S1 (stereo unspecified) was run?
A: The TGI was over 100 µM.

Q: For Clc1ccc(C2=Nn3c(COc4ccccc4Cl)nnc3SC2)c(Cl)c1, which GI50 is on record?
A: The GI50 was 25.4 µM.

Q: And the TGI?
A: Its TGI is 82.5 µM.

Q: Which TGI does the source give for CC(C)C(NC(=O)OC(C)(C)C)C(=O)N(C)C(Cc1ccccc1)C(=O)N(C)C(C(=O)O)C(C)C (stereo not drawn) (Boc-Val-[NMeF]-[NMeV]-OH; configuration not given here) here?
A: Its TGI is over 100 µM.

Q: How did the GI50 turn out when N=C1C(c2nc3ccccc3s2)=C(O)CN1c1cc(C(F)(F)F)ccc1Cl was run?
A: The GI50 was 47.2 µM.

Q: And the TGI?
A: The TGI was over 100 µM.

Q: For O=C1C(CN2CCCCC2)CCC1CN1CCCCC1 (stereo unspecified), which TGI is on record?
A: Its TGI is 94.6 µM.

Q: What does the source list for Cc1cc(S(=O)(=O)Nc2nnc(-c3ccccc3)c(-c3ccccc3)n2)c(SCC(N)=O)cc1Cl?
A: GI50: 41.8 µM; TGI: > 100 µM

Q: Which TGI does the source give for C=CCCN1CCc2c([nH]c3ccccc23)C1C(=O)O (stereo unspecified) here?
A: Its TGI is over 100 µM.

Q: For COC1C=CC(O)C(CO)O1 (stereo unspecified), which TGI is on record?
A: Its TGI is over 100 µM.

Q: COc1ccc(C2OC[C@H]3O[C@@H](OCc4ccccc4)[C@H](O)[C@@H](O)[C@@H]3O2)cc1 (stereo partly specified) was tested. Which TGI did it give?
A: The TGI was over 100 µM.

Q: For c1ccc(CNn2nnc3ccccc32)cc1, which TGI is on record?
A: Its TGI is over 100 µM.

Q: With COc1ccc(Cn2cc3c(c2-c2ccccc2)CC(C)(C)c2cnoc2-3)cc1 as the compound, how does the GI50 read?
A: The GI50 was 3.34 µM.

Q: And the TGI?
A: Its TGI is over 100 µM.

Q: How did the TGI turn out when CN1c2ccc(Cl)cc2C(=O)NC1c1ccc([N+](=O)[O-])s1 (stereo unspecified) was run?
A: The TGI was 65.2 µM.

Q: With NC(N)=NCCC[C@H](N)C(=O)NCC(=O)N[C@@H](CC(=O)O)c1ncc(NC(=O)C(F)(F)F)o1 as the compound, how does the TGI read?
A: Its TGI is over 25 µM.

Q: How did the GI50 turn out when CC(C)n1nc(-c2cc3cc(O)ccc3[nH]2)c2c(N)ncnc21 was run?
A: Its GI50 is 0.161 µM.

Q: And the TGI?
A: The TGI was 2.24 µM.

Q: How did the TGI turn out when O=Cc1ccc(OCc2cccc(COc3ccc(/C=N\Nc4ccc([N+](=O)[O-])cc4[N+](=O)[O-])cc3)n2)cc1 was run?
A: The TGI was over 100 µM.

Q: Which TGI does the source give for Cc1cn(C2CC(N(O)Cc3ccccc3)C(CO[Si](C)(C)C(C)(C)C)O2)c(=O)[nH]c1=O (stereo unspecified) here?
A: The TGI was 65.1 µM and 32.7 µM.

Q: With N#CC(NC12CC3CC(CC(C3)C1)C2)c1ccccc1C(F)(F)F (stereo unspecified) as the compound, how does the TGI read?
A: The TGI was over 100 µM.

Q: For Cc1cc(S(=O)(=O)N=C2N(Cc3ccccc3)CCN2Cc2ccccc2)c(S)cc1Cl, which TGI is on record?
A: Its TGI is over 100 µM.

Q: Which TGI does the source give for Cc1ccc([N+](=O)[O-])cc1S(=O)(=O)Nc1ccc(C2=NNC(c3ccccc3)C2)cc1 (stereo unspecified) here?
A: Its TGI is over 100 µM.

Q: How did the TGI turn out when Cc1nc(-c2cc3cc([N+](=O)[O-])ccc3oc2=O)cs1 was run?
A: The TGI was over 100 µM.

Q: For Cc1ccc(N=Nc2c(O)ccc3cc(S(=O)(=O)O)cc(S(=O)(=O)O)c23)cc1, which TGI is on record?
A: Its TGI is over 100 µM.

Q: With CCC[CH2][Sn]1([CH2]CCC)[O]CC(CN2CCCC2)[O]1 (stereo unspecified) as the compound, how does the GI50 read?
A: Its GI50 is 28.6 µM.

Q: And the TGI?
A: The TGI was over 100 µM.

Q: CC12C(=O)CC(CC1=O)C2(C)C was tested. Which TGI did it give?
A: The TGI was over 100 µM.

Q: Which TGI does the source give for Oc1ccc(-c2nc(-c3cccnc3)c(-c3ccc(Cl)cc3)[nH]2)cc1 here?
A: The TGI was 30 µM.

Q: NP(=O)(Oc1c2occc2cc2ccc(=O)oc12)N(CCCl)CCCl (stereo unspecified) was tested. Which TGI did it give?
A: Its TGI is over 100 µM.

Q: Which results are given for CN(C)C(=O)c1cc2cnc(Nc3ccc(-c4csc5c(=S)cc(N6CCOCC6)oc45)cc3)nc2n1C1CCCC1?
A: GI50: 0.55 µM; TGI: > 50 µM

Q: Which TGI does the source give for O=c1cc(-c2ccc(F)cc2)[nH]c2ncc(Cl)cc12 here?
A: The TGI was over 80.4 µM.

Q: How did the TGI turn out when C[C@@H]1CC(=O)C2CCCC1C2=O (stereo partly specified) was run?
A: The TGI was over 100 µM.

Q: Which GI50 does the source give for O=C(NC1=CC(=O)c2ccccc2C1=O)c1ccccc1 here?
A: Its GI50 is 4.22 µM.

Q: And the TGI?
A: Its TGI is 16.6 µM.

Q: How did the TGI turn out when CCOC(=O)N/N=C(/N)c1cccc([N+](=O)[O-])c1 was run?
A: Its TGI is over 100 µM.

Q: CN1C/C=C\CCOc2cccc(c2)-c2ccnc(n2)Nc2cccc(c2)C1 was tested. Which GI50 did it give?
A: The GI50 was 0.0588 µM.

Q: What about the TGI of the same compound?
A: Its TGI is 2.4 µM.

Q: How did the TGI turn out when CC1=NNC(N)=N/C1=C\C(Sc1ccc(Cl)cc1)c1ccc([N+](=O)[O-])cc1 (stereo unspecified) was run?
A: Its TGI is over 100 µM.

Q: Which results are given for COc1cc2c3c(n(CCCNC(=O)OCC4c5ccccc5-c5ccccc54)c(=O)c2cc1OC)-c1cc2c(cc1/C3=C\CCNC(=O)OCC1c3ccccc3-c3ccccc31)OCO2?
A: GI50: 23.4 µM; TGI: > 50 µM

Q: O=C(O)c1ccc([N+](=O)[O-])c2cc3cnccc3nc12 was tested. Which TGI did it give?
A: Its TGI is over 100 µM.

Q: With CC1(C)C(=O)N(CCCCCCN2C(=O)C(C)(C)c3ccccc32)c2ccccc21 as the compound, how does the TGI read?
A: The TGI was over 100 µM.

Q: Which results are given for CCCCC(O)(c1ccc(Cl)cc1)C(CN1CCOCC1)c1ccc(Cl)cc1 (stereo unspecified)?
A: GI50: 19.4 µM; TGI: 44.8 µM

Q: For COC1=C(C)C(=O)c2c(c(COC(N)=O)c3n2CC2C3N2C)C1=O (stereo unspecified), which TGI is on record?
A: Its TGI is 0.391 µM.

Q: C[N+](C)(C)CC1CCCCCCCCCCC1=O (stereo unspecified) was tested. Which TGI did it give?
A: Its TGI is over 100 µM.

Q: What does the source list for CC(=O)/C(C)=N/NC(=O)c1ccccc1O?
A: GI50: > 100 µM; TGI: > 100 µM

Q: How did the TGI turn out when COC1(OC)C2(Cl)C(Cl)=C(Cl)C1(Cl)C1C=CC=CC12 (stereo unspecified) was run?
A: The TGI was over 100 µM.

Q: Which TGI does the source give for COCN(CCC1=CCCCC1)C(=O)OC here?
A: The TGI was over 100 µM.

Q: COc1cc(/C=C/c2cc(/C=C/c3ccc(O)c(OC)c3)n(C(=O)Nc3ccc(F)c(Cl)c3)n2)ccc1O was tested. Which GI50 did it give?
A: Its GI50 is 0.555 µM.

Q: What about the TGI of the same compound?
A: The TGI was 5.8 µM.
